# Experimental data published in PubChem BioAssay AID504832 (National Center for Advancing Translational Sciences (NCATS), 2011).
# The whole screen tested about 310,000 compounds, of which about 18,000 (5.8%) were called active. Inconclusive results, whose numbers are uncertain, are shown with a selection of clear calls. Calls come from the whole dose curve; as a rule, active = well fitted inhibition curve with a large enough effect; inconclusive = small, poorly fitted or top-dose-only effect, or another doubt; inactive = no such curve, though single readings can be large or run the other way. Potencies of inconclusive entries are left out as doubtful fits.
# Assay: Primary qHTS for delayed death inhibitors of the malarial parasite plastid, 48 hour incubation
# Conditions: P. falciparum luciferase growth in erythrocytes; series mostly up to 28.7 µM; activity change, negative = inhibition: at the top concentration
# Method in brief: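 A one-generation exposure of luciferase-tagged malaria parasites in RPMI 1640/Albumax erythrocyte culture, 37 C and 5% CO2. Inhibition is inferred from decreased luminescence after adding detection reagent.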
# % is set by controls: 0 for no effect and ±100 for the full control effect; potency is the fitted concentration of half-maximal effect; tags give direction and shape of the fitted curve.
SMILES,Potency,"activity change, negative = inhibition"
COc1cccc2c1C(=O)C=C(C)C2=O,"inconclusive [inhibitor, single point]",
CCC(=O)Nc1ccc(S(=O)(=O)N2CCC(c3nc4ccccc4[nH]3)CC2)cc1,"inconclusive [inhibitor, single point]",
c1ccc(C[C@H]2CNCCN2CCC23CC4CC(CC(C4)C2)C3)cc1,"inconclusive [inhibitor, partial curve, poor fit]",
Cc1ccccc1OCCCN1C(=O)C(=O)c2cccc(C)c21,"inconclusive [inhibitor, single point]",
COc1ccc(S(=O)(=O)N(C)C)cc1NC(=O)c1ccc2c(c1)NC(=O)C(C)S2 (stereo not given),active: 9.28 µM,
CCOC(=O)N1CCN(C(=O)CCN2C(=O)/C(=C\c3ccccc3OC)SC2=S)CC1,"inconclusive [inhibitor, partial curve]",
Cc1cccc(CCN2C(Nc3ccccc3)=NC[C@@H]2CC(C)C)c1,active: 10.4 µM,
Cc1csc(NC(=O)c2sc3nc(-c4cccs4)ccc3c2N)n1,"inconclusive [inhibitor, single point]",
C=CCn1c(O)c(C(C)=NCCC(c2ccccc2)c2ccccc2)c(=O)[nH]c1=O,,inactive: -12.8%
O=C(NCCSc1ccc(Br)cc1)c1ccccc1,"inconclusive [inhibitor, single point]",
Cc1cc(=O)oc2c3c(cc(OCC(=O)NCCN4CCOCC4)c12)OC(C)(C)CC3,"inconclusive [inhibitor, partial curve]",
Cc1ccc(CN(C(=O)Cn2nnc3ccccc32)C(C(=O)NCc2ccco2)c2ccc(C)o2)cc1 (stereo not given),"inconclusive [inhibitor, partial curve]",
Cn1c(N)c(C(=O)CSc2nc3ccccc3c(=O)n2Cc2ccccc2)c(=O)n(C)c1=O,"inconclusive [inhibitor, full curve, poor fit]",
Cc1ccc(C(=O)Nc2cccc(S(=O)(=O)N(C)c3ccccc3)c2)o1,active: 8.28 µM,
CN(CC(=O)NCCC1=CCCCC1)S(=O)(=O)c1ccc2c(c1)CCC(=O)N2,"inconclusive [inhibitor, partial curve]",
CCN(C(=O)C1=COCCO1)c1nc2c(C)cccc2s1,,inactive: 44.3%
O=C(c1cccc(S(=O)(=O)Nc2ccccc2Cl)c1)N1CCCCCC1,"inconclusive [inhibitor, partial curve, poor fit]",
CCCn1c(N)c(N(CCOC)C(=O)c2ccc(-c3ccc(Cl)cc3)o2)c(=O)[nH]c1=O,"inconclusive [inhibitor, partial curve]",
c1ccc2c(c1)OCC(c1csc3ncnc(N4CCCCC4)c13)O2 (stereo not given),"inconclusive [inhibitor, single point]",
CC(=O)c1cccc(OCC(=O)Nc2ccccc2N2CCOCC2)c1,"inconclusive [inhibitor, partial curve, poor fit]",
NC(=O)c1oc2ccccc2c1NC(=O)C1CCCCC1,,inactive: -3.08%
NC(=O)C1CC(=O)N(c2ccc(OCC(=O)NCc3ccccc3)cc2)C1 (stereo not given),,inactive: 5.28%

SMILES,Potency,"activity change, negative = inhibition"
O=C(COc1cccc2ccccc12)NNC(=O)C1CCCO1 (stereo not given),,inactive: 0.176%
CC(=O)Nc1cccc(NC(=O)C2CC(=O)N(CCc3ccc(F)cc3)C2)c1 (stereo not given),,inactive: -6.43%
O=C(c1ccc(Cl)cc1Cl)N1CCc2ccccc21,"inconclusive [inhibitor, single point]",
CC(Oc1ccc2c(-c3ccccc3)cc(=O)oc2c1)C(=O)NCCCn1ccnc1 (stereo not given),"inconclusive [inhibitor, single point]",
CC(C)c1ccc(S(=O)(=O)Nc2ccc(O)c(Sc3ncn[nH]3)c2)cc1,,inactive: 12.6%
CCN1C(=O)/C(=C\c2cn(CCC#N)nc2-c2ccc(F)cc2)SC1=S,"inconclusive [inhibitor, single point]",
Cc1ccc(SC(C)c2nc(-c3cccnc3)no2)cc1 (stereo not given),"inconclusive [inhibitor, single point]",
Cn1c(=O)oc2cc(S(=O)(=O)NCCC(=O)N3CC=C(c4ccccc4)CC3)ccc21,"inconclusive [inhibitor, partial curve, poor fit]",
C/C(=N\OCC(=O)Nc1ccccc1C(C)(C)C)c1ccc2c(c1)OCCO2,active: 9.28 µM,
O=C(NCc1ccccc1)Nc1cccn(Cc2ccccc2Cl)c1=O,"inconclusive [inhibitor, partial curve, poor fit]",
C[C@@]12CCC(=O)C=C1C=C[C@H]1[C@H]3CC[C@](O)(CCC(=O)O)[C@]3(C)CC[C@@H]12,"inconclusive [inhibitor, single point]",
COc1ccc(-n2c(=O)[nH]c3cc(C(=O)NCCc4ccccc4)ccc3c2=O)cc1OC,"inconclusive [inhibitor, single point]",
CCCCCC(C)NC(=O)c1ccoc1C (stereo not given),,inactive: 19.9%
COc1ccc2c(CSc3nc4nc(C)cc(C)n4n3)cc(=O)oc2c1,active: 13.1 µM,
C/C=C(\C)C(=O)N[C@@H](c1ccccc1)[C@@H](O)C(=O)O[C@H]1C[C@@]2(O)[C@@H](OC(=O)c3ccccc3)C3[C@](C)(C(=O)[C@H](OC(C)=O)C(=C1C)C2(C)C)[C@H](O)C[C@H]1OC[C@@]31OC(C)=O (stereo not given in full),"inconclusive [inhibitor, full curve, poor fit]",
CCOc1ccc(CCNC(=O)c2c(C)noc2C)cc1OCC,"inconclusive [inhibitor, single point]",
COc1cccc(CC2(CO)CCCN(Cc3cc4ccccc4[nH]3)C2)c1 (stereo not given),"inconclusive [inhibitor, partial curve, poor fit]",
CC(=O)Nc1ccc(OS(=O)(=O)c2ccc([N+](=O)[O-])cc2)cc1,active: 13.1 µM,
Cc1ccc(C(C(=O)NC2CCCCC2)N(Cc2cccnc2)C(=O)c2csnn2)cc1 (stereo not given),,inactive: -24.6%
CN(C)S(=O)(=O)c1ccc(C(=O)NCC[N+]2(C)CCCCCC2)o1,"inconclusive [inhibitor, partial curve, poor fit]",
Cc1ccccc1-n1c(O)c(C=NC2CCS(=O)(=O)C2)c2ccccc2c1=O (stereo not given),,inactive: -16.4%
COc1cc(OC)c(NC(=O)Cn2cnc3sc(C)c(S(=O)(=O)N4CCOCC4)c3c2=O)cc1Cl,"inconclusive [inhibitor, single point]",

SMILES,Potency,"activity change, negative = inhibition"
COc1ccc(C(=O)NC2CC2)cc1OC1CCN(Cc2cnn(C)c2)CC1,,inactive: 3.24%
O=C(Nc1ccc(N2CCOCC2)cc1)NC1CCCCC1,"inconclusive [inhibitor, full curve, poor fit]",
OC(CNCCC(c1ccccc1)c1ccccc1)COc1ccccc1 (stereo not given),"inconclusive [inhibitor, single point]",
Cc1ccc(C(C)C)c(OCC(O)CN2CCc3ccccc3C2)c1 (stereo not given),"inconclusive [inhibitor, full curve, poor fit]",
Nc1nc(CN2CCN(c3ccccn3)CC2)nc(Nc2ccc(Cl)cc2)n1,"inconclusive [inhibitor, partial curve]",
COc1ccc(S(=O)(=O)N(C)C)cc1NC(=O)c1ccc(OCC(=O)N2CCOCC2)c(OC)c1,,inactive: -16.9%
CCOC(=O)CC(=O)CSc1nc(C)nc2c1oc1ccccc12,"inconclusive [inhibitor, single point]",
C=CCOc1c(/C=N\NC(N)=O)cccc1OC,"inconclusive [inhibitor, single point]",
O=C(CNS(=O)(=O)c1ccc(Br)s1)NCCc1ccc(Cl)cc1,,inactive: -4.37%
COc1ccccc1CN1CCN(Cc2nc(-c3ccc(C)cc3)oc2C)CC1,"inconclusive [inhibitor, single point]",
N=c1c2c(-c3ccccc3)c(-c3ccccc3)n(Cc3ccco3)c2ncn1CCO,"inconclusive [inhibitor, single point]",
Cc1ccc(C)c(N2CCN(CCCNC(=O)Cn3cccc3C(=O)c3ccccc3)CC2)c1,"inconclusive [inhibitor, single point]",
O=[N+]([O-])c1cccc(/C=N/Nc2cc(Cl)nc(-c3ccccc3)n2)c1,"inconclusive [inhibitor, partial curve, poor fit]",
O=C(Cn1ncc2c([nH]c3ccccc32)c1=O)Nc1ccc(CN2CCCCC2)cc1,"inconclusive [inhibitor, full curve]",
Cc1ccc(-c2csc3nc(C(C)C)oc(=O)c23)c(C)c1,"inconclusive [inhibitor, single point]",
Cc1coc2c1C(=O)C(=O)c1c-2ccc2c(C)cccc12,"inconclusive [inhibitor, single point]",
CSCCC(C(=O)N1C[C@]2(C)C[C@H]1CC(C)(C)C2)N1C(=O)c2ccccc2C1=O (stereo not given in full),"inconclusive [inhibitor, partial curve, poor fit]",
COc1ccccc1N(CC(=O)NCCc1ccccc1)C(=O)CCC(=O)Nc1cc(C)ccn1,,inactive: -11.3%
Cc1ccc(-c2nn(-c3ccccc3)cc2NC(=O)CCl)cc1,"inconclusive [inhibitor, single point]",
COc1ccc(C(=O)Nc2cccc(-c3cnc4ccccc4n3)c2)cc1,"inconclusive [inhibitor, full curve, poor fit]",
Nc1nc(-c2cc3c(cc2Cl)OCCO3)cs1,,inactive: 34.1%
